# In PubChem BioAssay (Tox21):
# Inconclusive means that the source gave no clear call. Such entries were picked first, then a sample of the others. For some of these results: Potencies of inconclusive entries are doubtful fits and often do not repeat. Activity calls are given as the source filed them. Unless noted, calls follow the shape of the full dose curve.
# Columns and labels:
# [1] = qHTS assay to identify small molecule antagonists of the peroxisome proliferator-activated receptor delta (PPARd) signaling pathway - cell viability counter screen (AID 743213; active = well fitted curve in the direction sought with a large enough effect in the repeat runs; inconclusive = weak or mixed curves; inactive = no such curve, though single readings can be large; an effect the other way counts as inactive or inconclusive; also: nearly all actives have a fitted effect of over 50% in size; also: potency is read from the fitted curve at half-maximal effect; as to viability change, negative = cytotoxic: % is scaled to controls: 0 for no effect and ±100 for the full control effect); details: PPARd-bla HEK293H viability, CellTiter-Glo luminescence, 17 h; viability change, negative = cytotoxic: at 62 µM (top of the series) unless noted
# Outline: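 Same-well viability: cells pre-incubated 5 h, dosed with compound plus 300 nM L165041, kept 17 h at 37 C, FRET substrate 2 h RT, then CellTiter-Glo 30 min RT and luminescence.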
# [2] = molecular target: Bile acid receptor (Homo sapiens) (UniProt Q96RI1); assay: qHTS assay to identify small molecule antagonists of the farnesoid-X-receptor (FXR) signaling pathway (AID 743217; active = well fitted inhibition curve with a large enough effect in the signal ratio in the repeat runs, not every such curve was filed as active; inconclusive = weak or mixed curves, or effect the other way; inactive = no such curve, though single readings can be large or run the other way; the % refers to the signal ratio; also: potency is read from the fitted curve at half-maximal effect; as to activity change, negative = inhibition: % is scaled to controls: 0 for no effect and ±100 for the full control effect); details: HEK293T FXR-UAS-bla, beta-lactamase ratio, CDCA-stimulated, 16 h; activity change, negative = inhibition: at 62.6 µM (top of the series) unless noted
# Chain of UniProt Q96RI1 (Q96RI1 whole entry, looked up): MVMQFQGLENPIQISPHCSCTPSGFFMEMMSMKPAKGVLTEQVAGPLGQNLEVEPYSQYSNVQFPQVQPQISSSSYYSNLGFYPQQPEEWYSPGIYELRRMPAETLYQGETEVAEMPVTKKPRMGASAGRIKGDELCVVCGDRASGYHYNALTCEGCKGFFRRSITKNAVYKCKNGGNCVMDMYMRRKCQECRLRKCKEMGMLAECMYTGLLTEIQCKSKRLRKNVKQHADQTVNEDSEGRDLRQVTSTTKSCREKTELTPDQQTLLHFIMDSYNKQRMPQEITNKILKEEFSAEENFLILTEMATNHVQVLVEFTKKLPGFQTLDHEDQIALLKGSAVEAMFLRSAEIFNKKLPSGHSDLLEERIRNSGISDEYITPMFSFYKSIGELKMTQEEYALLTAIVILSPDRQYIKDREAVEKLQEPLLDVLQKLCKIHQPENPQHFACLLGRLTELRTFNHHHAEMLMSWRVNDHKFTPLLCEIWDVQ
# Outline: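 GeneBLAzer FXR-UAS-bla HEK 293T, CDCA-stimulated (50 uM final). Compound treatment 16 h, 37 °C. Detection: beta-lactamase cleavage of B/G FRET substrate, fluorescence.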
# [3] = qHTS assay to identify small molecule agonists of the endoplasmic reticulum stress response signaling pathway (AID 1159516; active = well fitted activation curve with a large enough effect in the signal ratio in the repeat runs, not every such curve was filed as active; inconclusive = weak or mixed curves, or effect the other way; the % refers to the signal ratio; also: potency is read from the fitted curve at half-maximal effect; as to activation: % is scaled to controls: 0 for no effect and ±100 for the full control effect); details: ESRE-bla HeLa, ER stress beta-lactamase reporter, 5 h; activation: at 61 µM (top of the series) unless noted
# Outline: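 An ESRE-bla HeLa cell assay: compounds were pin-transferred from DMSO onto overnight-plated cells and left 5 hr at 37 C. Substrate was then loaded for 2 hr at room temperature before reading fluorescence at 460 nm and 530 nm.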
# [4] = molecular target: Retinoic acid receptor RXR-alpha (Homo sapiens) (UniProt P19793); assay: qHTS assay to identify small molecule agonists of the RXR signaling pathway (AID 1159527); details: HEK293T RXRa-UAS-bla, beta-lactamase ratio, 16 h; activation: at 76.8 µM (top of the series) unless noted; also: nearly all actives have a fitted effect of over 35% in size; also: potency is read from the fitted curve at half-maximal effect
# Chain of UniProt P19793 (P19793 whole entry, looked up): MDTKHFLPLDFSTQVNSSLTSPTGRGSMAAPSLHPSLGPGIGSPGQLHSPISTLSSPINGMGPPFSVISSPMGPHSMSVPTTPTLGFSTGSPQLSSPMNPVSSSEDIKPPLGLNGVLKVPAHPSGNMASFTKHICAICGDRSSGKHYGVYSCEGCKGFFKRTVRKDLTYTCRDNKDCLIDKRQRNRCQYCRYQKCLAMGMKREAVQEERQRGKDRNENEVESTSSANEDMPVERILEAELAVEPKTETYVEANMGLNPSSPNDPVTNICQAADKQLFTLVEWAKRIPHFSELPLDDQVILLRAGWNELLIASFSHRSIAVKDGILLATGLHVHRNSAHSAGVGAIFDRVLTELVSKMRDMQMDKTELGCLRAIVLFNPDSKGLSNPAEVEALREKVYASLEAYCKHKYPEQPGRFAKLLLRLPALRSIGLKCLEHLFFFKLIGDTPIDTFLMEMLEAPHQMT
# Outline: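 Reporter activation is measured as beta-lactamase activity via FRET substrate cleavage (emission 460/530 nm) in HEK 293T cells expressing an RXR-alpha-driven bla construct, following 16 hr compound exposure at 37 C.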
# [5] = qHTS assay to identify small molecule agonists of the farnesoid-X-receptor (FXR) signaling pathway - cell viability counter screen (AID 743218; active = well fitted curve in the direction sought with a large enough effect in the repeat runs; inconclusive = weak or mixed curves; inactive = no such curve, though single readings can be large; an effect the other way counts as inactive or inconclusive; also: nearly all actives have a fitted effect of over 45% in size; also: potency is read from the fitted curve at half-maximal effect); details: FXR-bla HEK293T viability, CellTiter-Glo luminescence, 16 h; viability change, negative = cytotoxic: at 62.6 µM (top of the series) unless noted
# Outline: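 Parallel cytotoxicity test: compound-treated (16 h, 37 C) HEK 293T FXR-bla reporter cells were lysed with CellTiter-Glo and luminescence recorded.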
# [6] = qHTS assay to identify small molecule agonists of the vitamin D receptor (VDR) signaling pathway - cell viability counter screen (AID 743224; active = well fitted curve in the direction sought with a large enough effect in the repeat runs; inconclusive = weak or mixed curves; inactive = no such curve, though single readings can be large; an effect the other way counts as inactive or inconclusive; also: nearly all actives have a fitted effect of over 50% in size; also: potency is read from the fitted curve at half-maximal effect); details: VDR-bla HEK293T viability, CellTiter-Glo luminescence, 16 h; activity change, negative = cytotoxicity: at 62.6 µM (top of the series)
# Outline: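 Plated VDR-bla cells (4 h, 37C) received compound, incubated 16 h, then LiveBLAzer substrate 2 h RT; CellTiter-Glo added afterwards, luminescence read at 30 min.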
# [7] = molecular target: Peroxisome proliferator-activated receptor delta (Homo sapiens) (UniProt Q03181); assay: qHTS assay to identify small molecule agonists of the peroxisome proliferator-activated receptor delta (PPARd) signaling pathway (AID 743212); details: HEK293H PPARd-UAS-bla, beta-lactamase FRET ratio, 17 h; activation: at 62.6 µM (top of the series) unless noted; also: potency is read from the fitted curve at half-maximal effect
# Chain of UniProt Q03181 (Q03181 whole entry, looked up): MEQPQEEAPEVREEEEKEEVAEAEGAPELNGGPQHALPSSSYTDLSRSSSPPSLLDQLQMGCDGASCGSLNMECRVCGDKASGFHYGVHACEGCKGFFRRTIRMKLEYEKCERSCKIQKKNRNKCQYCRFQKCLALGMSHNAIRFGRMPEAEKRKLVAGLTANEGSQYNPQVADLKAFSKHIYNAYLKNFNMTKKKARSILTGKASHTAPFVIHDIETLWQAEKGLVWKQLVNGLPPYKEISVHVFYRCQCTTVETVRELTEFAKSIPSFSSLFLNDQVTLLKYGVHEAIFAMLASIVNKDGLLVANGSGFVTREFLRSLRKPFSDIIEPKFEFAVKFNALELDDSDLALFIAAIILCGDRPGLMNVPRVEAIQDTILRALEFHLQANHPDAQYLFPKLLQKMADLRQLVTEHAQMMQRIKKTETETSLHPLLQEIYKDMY
# Outline: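 GeneBLAzer UAS-bla HEK293H cells carrying a PPARδ construct were exposed to compounds at 37 °C. Beta-lactamase activity was read by FRET fluorescence after 2 h at room temperature with LiveBLAzer B/G substrate.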
# [8] = molecular target: Vitamin D3 receptor (Homo sapiens) (UniProt P11473); assay: qHTS assay to identify small molecule antagonists of the vitamin D receptor (VDR) signaling pathway (AID 743223; active = well fitted inhibition curve with a large enough effect in the signal ratio in the repeat runs, not every such curve was filed as active; inconclusive = weak or mixed curves, or effect the other way; inactive = no such curve, though single readings can be large or run the other way; the % refers to the signal ratio; also: potency is read from the fitted curve at half-maximal effect); details: VDR-UAS-bla HEK293T, beta-lactamase FRET ratio, 16 h; activity change, negative = inhibition: at 61 µM (top of the series) unless noted
# Chain of UniProt P11473 (P11473 whole entry, looked up): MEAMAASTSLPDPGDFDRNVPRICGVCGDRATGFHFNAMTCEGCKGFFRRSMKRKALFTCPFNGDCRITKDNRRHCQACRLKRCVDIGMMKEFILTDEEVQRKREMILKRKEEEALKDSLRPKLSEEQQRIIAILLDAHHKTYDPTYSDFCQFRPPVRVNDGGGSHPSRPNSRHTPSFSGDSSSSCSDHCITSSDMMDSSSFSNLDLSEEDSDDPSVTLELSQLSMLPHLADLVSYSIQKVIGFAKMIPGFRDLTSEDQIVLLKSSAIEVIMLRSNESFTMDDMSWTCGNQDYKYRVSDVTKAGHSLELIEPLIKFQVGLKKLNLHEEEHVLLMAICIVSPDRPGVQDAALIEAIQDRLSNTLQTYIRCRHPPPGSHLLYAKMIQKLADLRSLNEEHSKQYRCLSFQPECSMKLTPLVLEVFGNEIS
# Outline: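 After VDR-bla cells are plated and left 4 h at 37C, DMSO-dissolved compounds and 3 nM (final) calcitriol agonist are added. Incubation continues 16 h at 37C; FRET beta-lactamase substrate then develops 2 h at room temperature.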
# [9] = molecular target: Vitamin D3 receptor (Homo sapiens) (UniProt P11473); assay: qHTS assay to identify small molecule agonists of the vitamin D receptor (VDR) signaling pathway (AID 743222); details: HEK293T VDR-UAS-bla, beta-lactamase FRET ratio, 16 h; activation: at 63.5 µM (top of the series) unless noted; also: potency is read from the fitted curve at half-maximal effect
# Outline: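 In VDR-bla cells, compound-induced beta-lactamase expression is quantified by FRET substrate fluorescence. Treatment lasts 16 h at 37C; substrate develops 2 h at room temperature.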
# [10] = qHTS assay to identify small molecule antagonists of the vitamin D receptor (VDR) signaling pathway - cell viability counter screen (AID 743225; active = well fitted curve in the direction sought with a large enough effect in the repeat runs; inconclusive = weak or mixed curves; inactive = no such curve, though single readings can be large; an effect the other way counts as inactive or inconclusive; also: nearly all actives have a fitted effect of over 50% in size; also: potency is read from the fitted curve at half-maximal effect); details: VDR-bla HEK293T viability, CellTiter-Glo luminescence, 16 h; viability change, negative = cytotoxic: at 61 µM (top of the series) unless noted
# Outline: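 Cytotoxicity toward the VDR-bla HEK 293T line was scored by ATP-based CellTiter-Glo luminescence, read in the wells already used for the beta-lactamase readout after 16 h compound treatment under 3 nM 1-alpha,25-dihydroxyvitamin D3 stimulation.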
# [11] = qHTS assay to identify small molecule agonists of the RXR signaling pathway - cell viability counter screen (AID 1159529; active = well fitted curve in the direction sought with a large enough effect in the repeat runs; inconclusive = weak or mixed curves; inactive = no such curve, though single readings can be large; an effect the other way counts as inactive or inconclusive; also: potency is read from the fitted curve at half-maximal effect; nearly all actives have a fitted effect of over 50% in size)
# Outline: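 Tox21 10K compounds were tested for cytotoxicity against GeneBLAzer RXR-alpha HEK 293T cells grown in 2% charcoal-stripped FBS. Exposure lasted 16 hr at 37 C, 5% CO2; viability read by CellTiter-Glo luminescence.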
# [12] = molecular target: Peroxisome proliferator-activated receptor delta (Homo sapiens) (UniProt Q03181); assay: qHTS assay to identify small molecule antagonists of the peroxisome proliferator-activated receptor delta (PPARd) signaling pathway (AID 743215; active = well fitted inhibition curve with a large enough effect in the signal ratio in the repeat runs, not every such curve was filed as active; inconclusive = weak or mixed curves, or effect the other way; inactive = no such curve, though single readings can be large or run the other way; the % refers to the signal ratio;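 also: cells stimulated with agonist L165041 at 300 nM final during compound exposure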; also: potency is read from the fitted curve at half-maximal effect); details: HEK293H PPARd-UAS-bla, beta-lactamase FRET ratio, antagonist, 17 h
# Outline: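 HEK293H UAS-bla, PPARd; agonist L165041 300 nM final with cpd in DMSO; 37 C 17 h; FRET substrate, RT 2 h; fluorescence intensity.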
# [13] = molecular target: Bile acid receptor (Homo sapiens) (UniProt Q96RI1); assay: qHTS assay to identify small molecule agonists of the farnesoid-X-receptor (FXR) signaling pathway (AID 743220; active = well fitted activation curve with a large enough effect in the signal ratio in the repeat runs, not every such curve was filed as active; inconclusive = weak or mixed curves, or effect the other way; the % refers to the signal ratio; also: % is scaled to controls: 0 for no effect and ±100 for the full control effect); details: HEK293T FXR-UAS-bla, beta-lactamase FRET ratio, 16 h; activation: at 62.6 µM (top of the series) unless noted
# Outline: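 Beta-lactamase reporter under UAS control in GeneBLAzer FXR HEK 293T cells (5000/well) measured with LiveBLAzer FRET substrate after 2 h at room temperature. Compound exposure lasted 16 h at 37C.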
# Tags tell the direction and shape of the fitted curve or compound fluorescence and quenching.
smiles,measurement,setting,value
CCCOCC(C)OCC(C)O (stereo not given),Potency,[1],inactive
same,Potency,[2],inactive
same,Potency,[3],inactive
same,Potency,[4],inactive
CC(=O)OCCC(C)CC(C)(C)C (stereo not given),Potency,[1],inactive
same,"viability change, negative = cytotoxic",[5],inconclusive: -33.1% [cytotoxic]
same,Potency,[6],"inconclusive: 61.6 µM [cytotoxic, partial curve, poor fit]"
same,activation,[3],inconclusive: 3.02%
same,Potency,[4],active: 11 µM
CC(C)(C)NCC(O)COc1cccc2c1C[C@H](O)[C@H](O)C2 (stereo not given in full),Potency,[1],"inconclusive: 0.266 µM [rising, full curve, poor fit]"
same,Potency,[3],"inconclusive: 30.1 µM [activator, partial curve, poor fit]"
same,Potency,[4],inactive
Cn1c(=O)c2c(ncn2CCO)n(C)c1=O,Potency,[1],inactive
same,Potency,[5],inactive
same,Potency,[3],inactive
same,Potency,[4],inactive
Nc1nc(Cl)nc2c1ncn2[C@H]1C[C@H](O)[C@@H](CO)O1,Potency,[7],"inconclusive: 0.173 µM [rising, full curve, poor fit]"
same,Potency,[2],"inconclusive: 0.865 µM [inhibitor, full curve]"
same,Potency,[3],inactive
same,Potency,[4],"inconclusive: 3.86 µM [activator, full curve, poor fit]"
CCCCCCCCC1CCC(=O)O1 (stereo not given),Potency,[7],inactive
same,Potency,[8],"inconclusive: 0.0174 µM [rising, full curve, poor fit]"
same,Potency,[3],inactive
same,Potency,[4],inactive
O=C(C1CCCCC1)N1CC(=O)N2CCCc3ccccc3C2C1 (stereo not given),Potency,[7],"inconclusive: 8.41 µM [rising, full curve, poor fit]"
same,Potency,[9],"inconclusive: 10.6 µM [rising, partial curve, poor fit]"
same,Potency,[8],"inconclusive: 16.9 µM [activator, partial curve, poor fit]"
same,Potency,[3],inactive
same,Potency,[4],"inconclusive: 9.52 µM [rising, partial curve]"
Cc1cccc(CN2CCN(C(c3ccccc3)c3ccc(Cl)cc3)CC2)c1 (stereo not given),Potency,[1],inactive
same,Potency,[5],active: 29.8 µM
same,Potency,[9],"inconclusive: 9.44 µM [rising, full curve, poor fit]"
same,"activity change, negative = inhibition",[8],inconclusive: 7.92%
same,Potency,[6],inconclusive: 29.8 µM [cytotoxic]
same,Potency,[10],"inconclusive: 23.9 µM [cytotoxic, single point]"
same,Potency,[3],"inconclusive: 23.9 µM [falling, partial curve, poor fit]"
same,activation,[4],inconclusive: -16.1% [at 35.3 µM]
CC(=O)Oc1ccc(C(C)=O)cc1,Potency,[1],"inconclusive: 5.1 µM [cytotoxic, single point]"
same,Potency,[2],inactive
same,Potency,[5],"inconclusive: 0.255 µM [rising, full curve, poor fit]"
same,Potency,[8],"inconclusive: 64.2 µM [activator, single point]"
same,Potency,[3],inactive
same,Potency,[4],inactive
Cc1ccc(S(=O)(=O)NC2CCCCC2)cc1,Potency,[7],inactive
same,Potency,[3],inactive
same,activation,[4],inconclusive: -20.5%
O=C1NC(=O)[C@@H]2CC=CC[C@H]12,Potency,[1],inactive
same,"viability change, negative = cytotoxic",[10],inconclusive: -31.1% [cytotoxic]
same,Potency,[3],"inconclusive: 0.549 µM [falling, single point]"
same,Potency,[4],"inconclusive: 38.9 µM [activator, partial curve]"
same,Potency,[11],inconclusive: 24.5 µM [cytotoxic]
O=C(O)/C=C/c1ccc(/C=C/C(=O)O)cc1,Potency,[7],inactive
same,Potency,[5],"inconclusive: 3.8 µM [rising, partial curve, poor fit]"
same,Potency,[3],inactive
same,Potency,[4],inactive
O=C(Oc1ccccc1)c1ccc(O)cc1,"ratio activity, negative = inhibition",[12]; at 62 µM (top of the series),inconclusive: -31.9%
same,"ratio activity, negative = inhibition",[12]; at 80.4 µM (top of the series),inconclusive: -30.7%
same,Potency,[5],"inconclusive: 54.9 µM [cytotoxic, single point]"
same,Potency,[10],"inconclusive: 55.3 µM [cytotoxic, single point]"
same,activation,[3],inconclusive: -1.61%
same,Potency,[4],inactive
Cc1cc(-n2nc3ccc(Cl)cc3n2)c(O)c(C(C)(C)C)c1,activation,[13],inconclusive: 2.74%
same,Potency,[9],inactive
same,activation,[3],inconclusive: 10.2%
same,Potency,[4],inactive
Sc1nc(S)nc(S)n1,Potency,[2],inactive
same,"activity change, negative = inhibition",[8],inconclusive: 20.5%
same,Potency,[3],inactive
same,Potency,[4],"inconclusive: 0.844 µM [inhibitor, partial curve, poor fit]"
O=C(/C=C/c1ccccc1)OC/C=C/c1ccccc1,Potency,[5],"inconclusive: 21.9 µM [rising, partial curve, poor fit]"
same,Potency,[3],"inconclusive: 61.7 µM [activator, partial curve, poor fit]"
same,Potency,[4],"inconclusive: 21.9 µM [inhibitor, partial curve, poor fit]"
COc1cc(OC)c2ccc(=O)oc2c1,Potency,"[12]; ratio activity, negative = inhibition: at 62 µM (top of the series) unless noted",inconclusive: 54.9 µM [activator]
same,Potency,[5],inactive
same,activation,[3],inconclusive: 5.88%
same,activation,[4],inconclusive: 5.99%
Cc1cccc(C)c1,Potency,[5],inactive
same,Potency,[8],inconclusive: 61.6 µM [inhibitor]
same,Potency,[10],"inconclusive: 0.0436 µM [cytotoxic, full curve, poor fit]"
same,Potency,[3],"inconclusive: 0.238 µM [fluorescent, partial curve, poor fit]"
same,Potency,[4],"inconclusive: 53.1 µM [activator, single point]"
CCOC(=O)COc1cc(-n2ncc(C(F)(F)F)c(C)c2=O)c(F)cc1Cl,"activity change, negative = inhibition",[8],inconclusive: -0.495%
same,Potency,[6],inactive
same,Potency,[3],inactive
same,Potency,[4],inactive
